57 molecules from publication PMC4336329 (PLoS ONE, 2015) can be followed below.

About 2,200 (0.71%) of roughly 310,000 compounds showed an effect of 50% or more. Effects have a minus sign here. This is one part of the list.

In the assay the target is human ether-à-go-go-related gene (hERG) potassium channel (human, UniProt Q12809). Briefly: primary screen, population patch clamp on CHO cells stably expressing hERG.
Chain of human ether-à-go-go-related gene (hERG) potassium channel (Q12809 whole entry, looked up): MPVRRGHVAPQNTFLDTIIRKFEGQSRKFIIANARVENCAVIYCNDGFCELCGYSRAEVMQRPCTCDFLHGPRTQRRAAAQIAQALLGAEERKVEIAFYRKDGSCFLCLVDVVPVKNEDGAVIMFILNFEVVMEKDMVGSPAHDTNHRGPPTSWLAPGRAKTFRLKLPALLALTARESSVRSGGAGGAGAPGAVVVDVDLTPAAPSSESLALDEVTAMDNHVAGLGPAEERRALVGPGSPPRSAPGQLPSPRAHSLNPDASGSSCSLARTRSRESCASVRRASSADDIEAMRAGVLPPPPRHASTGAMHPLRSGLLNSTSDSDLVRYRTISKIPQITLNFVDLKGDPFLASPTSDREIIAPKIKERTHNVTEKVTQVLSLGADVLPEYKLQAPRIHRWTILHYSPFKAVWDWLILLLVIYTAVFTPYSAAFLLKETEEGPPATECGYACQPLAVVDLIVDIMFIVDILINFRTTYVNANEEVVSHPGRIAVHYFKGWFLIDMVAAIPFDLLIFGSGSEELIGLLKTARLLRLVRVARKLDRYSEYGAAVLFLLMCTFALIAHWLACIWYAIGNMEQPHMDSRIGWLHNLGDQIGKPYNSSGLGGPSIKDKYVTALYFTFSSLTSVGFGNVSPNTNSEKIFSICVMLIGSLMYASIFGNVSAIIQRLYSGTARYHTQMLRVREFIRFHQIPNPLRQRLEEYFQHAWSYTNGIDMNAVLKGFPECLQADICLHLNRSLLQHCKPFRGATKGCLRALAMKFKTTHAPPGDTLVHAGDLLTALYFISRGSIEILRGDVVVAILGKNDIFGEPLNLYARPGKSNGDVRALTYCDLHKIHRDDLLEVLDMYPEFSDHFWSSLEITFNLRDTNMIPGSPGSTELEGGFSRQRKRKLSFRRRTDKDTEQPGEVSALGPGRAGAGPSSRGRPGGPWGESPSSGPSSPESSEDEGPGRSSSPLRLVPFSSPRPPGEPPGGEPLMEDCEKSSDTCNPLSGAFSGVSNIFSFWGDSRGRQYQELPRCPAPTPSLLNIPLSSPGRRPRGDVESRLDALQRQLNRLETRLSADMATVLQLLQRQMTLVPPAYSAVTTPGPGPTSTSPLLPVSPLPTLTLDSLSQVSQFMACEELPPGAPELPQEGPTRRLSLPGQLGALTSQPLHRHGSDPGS
For the molecule `CC(=O)c1cccc(NC(=O)CCCCCn2nnc3ccccc3c2=O)c1`, the “hERG current change (%, negative = inhibition) at 1uM” value amounted to 6.86%.
Then `CCN(CC)CCCNC(=O)c1cc2c(=O)n(CC)c3ccccc3c2s1`, with 4.1%; and `CCOC(=O)c1ccc(N(C(=O)c2cnccn2)C(C(=O)NC2CCCCC2)c2cn(C)nc2C)cc1` (stereo not drawn), with -17.2%; and `Clc1cnc(N/N=C/c2ccncc2)c(Cl)c1`, with 10.3%.
Then `COc1ccc(CC(NC(C)=O)C(=O)NC2CCN(c3nc(C)cc(C)c3C#N)CC2)c(OC)c1` (stereo not drawn), with 12%.
Then `CCOC(=O)c1cccnc1NC(=O)c1ccncc1`, with 14.5%; and `O=C(CNC(=S)N(Cc1ccccc1)Cc1cccnc1)NCCc1ccccc1`, with 0.0675%.
Consider `CC(=O)N(/N=C/c1ccc([N+](=O)[O-])o1)c1nc2ccccc2c(=O)n1-c1ccccc1`, for which the “hERG current change (%, negative = inhibition) at 1uM” value came to 6.3%.
Then `CC(NC(=O)c1ccc(C(C)(C)C)cc1)C(=O)O` (stereo not drawn), with 9.99%; and `CC(=O)NNC(=O)c1[nH]c2ccc(Cl)cc2c1-c1ccccc1`, with 14.7%; and `O=C(Cc1c(O)c2ccccc2[nH]c1=O)NC1CCCCCCC1`, with -1.98%.
Then `Cc1cc(=O)oc2c(C)c(OC(C)C(=O)N3CC[C@@]4(O)CCCC[C@H]4C3)ccc12` (stereo partly drawn), with 2.85%; and `CCCC(=O)Nc1ccc(NC(=O)c2ccccc2)nc1`, with 13.6%.
Then `Cc1cccc(OCC(=O)N2CCC(N3CCCCCC3)CC2)c1`, with 3.48%; and `O=C(Cn1c2c(c(=O)n3ncnc13)CCC2)N/N=C/c1cccs1`, with 20%.
On to `Cc1cc(NCc2ccccc2)nc(N2CCOCC2)n1`, for which the “hERG current change (%, negative = inhibition) at 1uM” value is 3.81%.
Then `Cc1nn(-c2ccccc2)c(C)c1NC(=O)COC(=O)CC(C)c1ccccc1` (stereo not drawn), with 4.03%.
Then `Cc1ccccc1S(=O)(=O)N1[C@@H](c2cccc(Cl)c2)C(C(=O)O)=CC[C@H]1c1ccc(Cl)cc1`, with 3.96%.
Then `Cc1ccc(OCC(=O)NCCCNC(=O)c2cccnc2)cc1C`, with 7.2%; and `CC(=O)N=C(N)Sc1nc2ccccc2[nH]1`, with 5.28%.
On to `COCCCNC(=O)CSc1nc2ccccc2c(=O)n1CCc1ccc(S(N)(=O)=O)cc1`, for which the “hERG current change (%, negative = inhibition) at 1uM” value stood at 8.29%.
Then `Cc1onc(-c2ccccc2)c1C(=O)NNC(=S)NC(=O)c1ccc2c(c1)OCO2`, with 9.64%; and `FC(F)(F)c1nc(SCc2ccccc2)n[nH]1`, with 13.9%.
Consider `Cc1ccccc1NC(=O)c1ccc2c(c1)OCCO2`, for which the “hERG current change (%, negative = inhibition) at 1uM” value was 11%.
As for `CCOc1ccc2cc(C#N)c(SCC(=O)N3CCC(C)CC3)nc2c1`, the “hERG current change (%, negative = inhibition) at 1uM” value was 5.56%.
Then `COc1ccc(CC(=O)NNC(=O)COc2ccc(C)cc2)cc1S(=O)(=O)N1CCOCC1`, with 16.9%; and `CCc1nnc(NC(=O)c2ccc3c(=O)n4c(nc3c2)CCCCC4)s1`, with 14.4%.
Then `CC(=O)c1ccc(OC(=O)C2CC(=O)N(c3cccc(C)c3)C2)cc1` (stereo not drawn), with -1.15%; and `Cc1ccc(C(=O)Cn2nnc3ccccc32)cc1C`, with 1.4%.
As to `O=C(CSc1nc2ccccc2c(=O)[nH]1)NCc1ccc(Cl)cc1`, the “hERG current change (%, negative = inhibition) at 1uM” value stood at 1.66%.
Turning to `CCCCNS(=O)(=O)c1cccc(S(=O)(=O)N2CCCC2)c1`, the “hERG current change (%, negative = inhibition) at 1uM” value is listed as 0.0039%.
Then `Cn1c(Cc2cccs2)nnc1SCC(=O)Nc1ccccc1F`, with 16.1%.
In the case of `COc1ccccc1C(=O)N(CCC1CCCN1C)c1nc2ccccc2s1` (stereo not drawn), the “hERG current change (%, negative = inhibition) at 1uM” value is listed as 3.79%.
Then `COc1ccc(CCNC(=O)c2ccc(=O)[nH]c2)cc1OC`, with 12%.
As for `COc1ccc(C)cc1NC(=O)c1ccc(CN2CCc3ccccc3C2)cc1`, the “hERG current change (%, negative = inhibition) at 1uM” value was 14.7%.
As to `CCCC(=O)NC(Nc1ccccc1OC)C(Cl)(Cl)Cl` (stereo not drawn), the “hERG current change (%, negative = inhibition) at 1uM” value was 8.13%.
`COc1ccc(S(=O)(=O)N(CC(=O)NCc2ccncc2)c2ccc(C)cc2)cc1Br`: the “hERG current change (%, negative = inhibition) at 1uM” value is -28.1%.
Regarding `Cc1cc(N(C(=O)c2ccco2)C(C(=O)NC2CCCCC2)c2ccccc2)ccc1-n1cnnn1` (stereo not drawn), the “hERG current change (%, negative = inhibition) at 1uM” value stood at 13.2%.
As for `CC1CCN(C(=O)COC(=O)c2ccc(Br)o2)CC1`, the “hERG current change (%, negative = inhibition) at 1uM” value is on record as 14.5%.
Then `CN(C)c1ccc(CN(C(=O)C2COc3ccccc3O2)C2CCS(=O)(=O)C2)cc1` (stereo not drawn), with -0.909%; and `C/C(=N\NC(=O)c1ccccc1)c1ccccc1F`, with -0.463%; and `COC(=O)CNC(=O)c1cn(CCC#N)nc1-c1ccc(F)cc1`, with 0.966%.
Then `Cc1ccc(-c2noc(CN3C(C)CCCC3C)n2)cc1` (stereo not drawn), with 8.87%.
Then `OCCNC(=S)Nc1ccc(Oc2ccccc2)cc1`, with 13.8%; and `Nc1nc(F)nc2c1ncn2[C@@H]1O[C@H](CO)[C@@H](O)[C@@H]1O`, with 16.7%; and `CCCN(CCC)S(=O)(=O)c1ccc(N2CCCC2=O)c([N+](=O)[O-])c1`, with -6.51%.
`CN1C(=O)C(=Cc2cn(CC(=O)N3CCCC3)c3ccccc23)C(=O)N(C)C1=O`: the “hERG current change (%, negative = inhibition) at 1uM” value worked out at 7.22%.
Then `CC(C)(O)c1[nH]c2ccc(C#N)cc2c1C(C)(C)O`, with 9.14%; and `CCN1C(=O)/C(=C2\C=Cc3cc(C)ccc3N2CC)OC1=S`, with 14%.
Then `COc1ccc(NS(=O)(=O)c2cccc(C(=O)NCCCn3ccnc3)c2)cc1`, with 15.7%; and `CC1(C)C(=O)Nc2ccccc2N1C(=O)COC(=O)c1cc([N+](=O)[O-])ccc1N`, with 12%.
Then `O/N=C(\c1ccccc1)c1nccc2ccccc12`, with 8.46%.
As for `CC1CCN(C(=O)c2nc[nH]c2C(=O)OCCNC(=O)OC(C)(C)C)CC1`, the “hERG current change (%, negative = inhibition) at 1uM” value is given as 14.4%.
Then `CC1CC(=O)C2=C(C1)OC(N)=C(C#N)C2c1coc2ccccc2c1=O` (stereo not drawn), with 9.7%; and `Brc1ccc(CNCCCSc2ncccn2)cc1.Cl`, with 6.81%; and `C=CCNC(=O)NC(=O)COC(=O)/C(C#N)=C/c1ccc(OC)cc1`, with 9.72%.
Take `O=C(CC(=O)c1ccccc1[N+](=O)[O-])c1ccccc1`: the “hERG current change (%, negative = inhibition) at 1uM” value is recorded as 12.7%.
